Data from paper PMC4336329 (PLoS ONE, 2015).
The whole screen tested about 310,000 compounds, of which about 2,200 (0.71%) showed an effect of 50% or more. Effects have a minus sign here. The list shows a part of the results.

These compounds were tested against human ether-à-go-go-related gene (hERG) potassium channel (human, UniProt Q12809) (assay: primary screen, population patch clamp on CHO cells stably expressing hERG).
human ether-à-go-go-related gene (hERG) potassium channel, sequence (Q12809 whole entry, looked up): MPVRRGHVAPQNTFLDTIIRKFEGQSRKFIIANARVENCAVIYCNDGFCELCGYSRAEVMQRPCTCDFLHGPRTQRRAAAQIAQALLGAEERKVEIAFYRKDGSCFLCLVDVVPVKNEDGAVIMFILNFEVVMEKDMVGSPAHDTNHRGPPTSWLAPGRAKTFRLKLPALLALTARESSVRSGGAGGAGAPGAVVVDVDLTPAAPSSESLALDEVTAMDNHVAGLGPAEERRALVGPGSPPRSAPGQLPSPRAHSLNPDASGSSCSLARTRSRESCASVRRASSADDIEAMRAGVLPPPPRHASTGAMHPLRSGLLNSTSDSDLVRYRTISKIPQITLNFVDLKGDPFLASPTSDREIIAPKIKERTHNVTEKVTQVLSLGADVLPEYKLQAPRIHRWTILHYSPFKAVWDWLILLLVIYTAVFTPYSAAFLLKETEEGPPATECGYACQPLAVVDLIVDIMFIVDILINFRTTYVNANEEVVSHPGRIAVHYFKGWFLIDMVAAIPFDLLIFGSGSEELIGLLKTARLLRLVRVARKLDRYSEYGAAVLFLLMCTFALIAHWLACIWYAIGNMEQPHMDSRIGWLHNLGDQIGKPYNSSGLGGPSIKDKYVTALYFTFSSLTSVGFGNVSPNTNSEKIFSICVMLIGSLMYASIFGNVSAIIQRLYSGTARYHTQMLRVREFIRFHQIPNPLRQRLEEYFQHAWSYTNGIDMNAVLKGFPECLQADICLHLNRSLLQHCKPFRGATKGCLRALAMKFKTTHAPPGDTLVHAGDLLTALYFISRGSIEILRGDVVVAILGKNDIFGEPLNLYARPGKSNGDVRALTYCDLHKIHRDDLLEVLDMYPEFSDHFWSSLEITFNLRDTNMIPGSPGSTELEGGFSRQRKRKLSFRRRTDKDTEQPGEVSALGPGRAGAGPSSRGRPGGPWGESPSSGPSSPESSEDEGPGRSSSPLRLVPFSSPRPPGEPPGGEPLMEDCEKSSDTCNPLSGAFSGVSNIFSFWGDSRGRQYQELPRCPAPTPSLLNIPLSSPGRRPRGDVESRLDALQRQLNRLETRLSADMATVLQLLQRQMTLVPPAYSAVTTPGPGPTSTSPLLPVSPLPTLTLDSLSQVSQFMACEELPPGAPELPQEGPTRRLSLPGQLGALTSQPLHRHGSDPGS
`CCCc1nc(SCC(=O)c2ccc(F)cc2)c2ccccc2n1` was tested, and the “hERG current change (%, negative = inhibition) at 1uM” value was 17.8%.
In the case of `Nn1c(Cc2ccccc2)nc2cc(Cl)ccc2c1=O`, the “hERG current change (%, negative = inhibition) at 1uM” value was 15.1%.
With `N#Cc1nc(-c2ccccc2F)oc1N1CCCCC1` the “hERG current change (%, negative = inhibition) at 1uM” value was 22.6%.
With `CCN(CC)CCC#CC(O)(c1ccccc1)c1ccccc1` the “hERG current change (%, negative = inhibition) at 1uM” value was -4.15%.
For `O=C(Cc1ccccc1Cl)N1CCN(c2ccccn2)CC1`, the “hERG current change (%, negative = inhibition) at 1uM” value was 4.35%.
For `CC(C)(C)NC(=O)C(c1ccncc1)N(C(=O)c1csnn1)c1ccccc1` (stereo not drawn), the “hERG current change (%, negative = inhibition) at 1uM” value was 3.06%.
For `COc1ccc(NC(=S)NCC2CCCO2)c(OC)c1` (stereo not drawn), the “hERG current change (%, negative = inhibition) at 1uM” value was 16.6%.
`COc1cc(OC)cc(C(=O)N[C@H](C(=O)Nc2nnc(C3CC3)s2)C(C)C)c1` was tested, and the “hERG current change (%, negative = inhibition) at 1uM” value was 10.2%.
For `NC(=O)c1nsc(C(=O)N(Cc2ccco2)C(C(=O)NCC2CCCO2)c2ccc(O)cc2)c1N` (stereo not drawn), the “hERG current change (%, negative = inhibition) at 1uM” value was 11.6%.
`COc1ccc(S(=O)(=O)N2N=C(C)Oc3ccccc3C2=O)cc1` was tested, and the “hERG current change (%, negative = inhibition) at 1uM” value was 5.97%.
`O=C(C1=C(O)C(=O)N(CCN2CCOCC2)C1c1cccc([N+](=O)[O-])c1)c1cccs1` (stereo not drawn) was tested, and the “hERG current change (%, negative = inhibition) at 1uM” value was 9.7%.
`COC(=O)c1ccc(Sc2nnnn2-c2ccccc2)c([N+](=O)[O-])c1` was tested, and the “hERG current change (%, negative = inhibition) at 1uM” value was 6.33%.
`COc1ccc(C)cc1NC(=O)COC(=O)c1ccc(OCc2ccc(Cl)cc2Cl)c(OC)c1` was tested, and the “hERG current change (%, negative = inhibition) at 1uM” value was 13.4%.
In the case of `CN(C)S(=O)(=O)c1ccc(C(=O)Nc2nc(-c3cccs3)cs2)cc1`, the “hERG current change (%, negative = inhibition) at 1uM” value was 11.4%.
`CN(C)CCN1C(=O)C(=O)/C(=C(/O)c2ccc(S(=O)(=O)N3CCOCC3)cc2)C1c1ccccc1` (stereo not drawn) was tested, and the “hERG current change (%, negative = inhibition) at 1uM” value was 9.21%.
In the case of `COc1cc(/C=C2\SC(=S)N(NC(=O)c3ccccc3OC)C2=O)ccc1O`, the “hERG current change (%, negative = inhibition) at 1uM” value was 13%.
In the case of `Cn1c(=O)c(Nc2ccc(O)cc2)c2c3c(cccc31)C(=O)c1ccccc1-2`, the “hERG current change (%, negative = inhibition) at 1uM” value was 7.76%.
`CN(C)S(=O)(=O)c1ccc(N2CCCC2)c(C(=O)NNC(=O)c2ccc(F)cc2)c1` was tested, and the “hERG current change (%, negative = inhibition) at 1uM” value was 14.3%.
For `O=C(CN1C(=O)C2C3C=CC(C3)C2C1=O)NCCc1ccccc1Cl` (stereo not drawn), the “hERG current change (%, negative = inhibition) at 1uM” value was 11.9%.
In the case of `COC(=O)c1nn(-c2cccc(Cl)c2)cc(OC)c1=O`, the “hERG current change (%, negative = inhibition) at 1uM” value was 18.7%.
For `Cc1nc(N2CCOCC2)c2c(C)c(C(=O)Nc3ccc(F)cc3F)sc2n1`, the “hERG current change (%, negative = inhibition) at 1uM” value was 11.2%.
`CCN(CC1CCCO1)C(=O)c1cc(COc2ccccc2SC)on1` (stereo not drawn) was tested, and the “hERG current change (%, negative = inhibition) at 1uM” value was -58.9%.
In the case of `CC(=O)O.COc1cc2c(C#N)c(N3CCCC3)nc(N)c2c(N)n1`, the “hERG current change (%, negative = inhibition) at 1uM” value was 8.26%.
`CCOc1ccccc1CNS(=O)(=O)c1cc(-c2cc(C)no2)ccc1OC` was tested, and the “hERG current change (%, negative = inhibition) at 1uM” value was 7.98%.
In the case of `COc1ccc(N2CCN(C(=O)c3cccc(NC4=NC5CS(=O)(=O)CC5S4)c3)CC2)cc1` (stereo not drawn), the “hERG current change (%, negative = inhibition) at 1uM” value was 17.9%.
With `O=C(N/N=C/c1ccc(OC(=O)c2ccccc2)c([N+](=O)[O-])c1)c1ccc(O)cc1` the “hERG current change (%, negative = inhibition) at 1uM” value was 10.9%.
`Cc1ccc(-n2c(=S)[nH]c3sc4c(c3c2=O)CCC4)cc1` was tested, and the “hERG current change (%, negative = inhibition) at 1uM” value was 16.6%.
In the case of `CCCCn1c(N)c(N(CCOC)C(=O)c2ccc(-c3ccc(C(C)=O)cc3)o2)c(=O)[nH]c1=O`, the “hERG current change (%, negative = inhibition) at 1uM” value was 6.17%.
For `O=C(COc1ccccc1Cl)N1CCCC(N2CCN(c3ccc(F)cc3)CC2)C1` (stereo not drawn), the “hERG current change (%, negative = inhibition) at 1uM” value was -19.5%.
With `Cc1ccc(NC(=O)COc2cccnc2[N+](=O)[O-])cc1S(=O)(=O)N1CCOCC1` the “hERG current change (%, negative = inhibition) at 1uM” value was 9.39%.
In the case of `CCc1nc2ccccc2n1CC(C)C(=O)O.Cl` (stereo not drawn), the “hERG current change (%, negative = inhibition) at 1uM” value was 12.7%.
With `COc1ccc(CC(=O)OCC(=O)Nc2ccc3[nH]c(=O)[nH]c3c2)cc1` the “hERG current change (%, negative = inhibition) at 1uM” value was 10.9%.
`CC1CCN(C(=O)c2ccc3c(c2)NC(=O)/C(=C/c2ccccc2)S3)CC1` was tested, and the “hERG current change (%, negative = inhibition) at 1uM” value was 14.6%.
For `Cc1ccccc1/C=C1\Sc2ccc(C(=O)N3CCN(c4ccccn4)CC3)cc2N(C)C1=O`, the “hERG current change (%, negative = inhibition) at 1uM” value was 9.39%.
`C=CCN(C(=O)C1=NN(C2CCS(=O)(=O)C2)C(=O)CC1)c1nc(-c2ccc([N+](=O)[O-])cc2)cs1` (stereo not drawn) was tested, and the “hERG current change (%, negative = inhibition) at 1uM” value was -6.17%.
For `Cc1cc(C)cc(NC(=S)N2CCN(CCO)CC2)c1`, the “hERG current change (%, negative = inhibition) at 1uM” value was 12.4%.
In the case of `Cc1cc(C)nc(NC(=O)Cc2ccc(Cl)cc2)c1`, the “hERG current change (%, negative = inhibition) at 1uM” value was 15.1%.
In the case of `CC(C)(C)C1CCC2(CC1)C(C#N)=C(SCC(=O)NC1CCCCC1)NC(=O)C2C#N` (stereo not drawn), the “hERG current change (%, negative = inhibition) at 1uM” value was 7.68%.
In the case of `COc1ccc(/C=N/NC(=S)NCc2ccccc2)cc1OC`, the “hERG current change (%, negative = inhibition) at 1uM” value was 9.83%.
For `Cc1ccc(CNC(=O)CS(=O)(=O)CC(=O)O)cc1`, the “hERG current change (%, negative = inhibition) at 1uM” value was 17.8%.
With `CC(=O)Nc1cc(C(=O)N2CCCC2)ccc1S(=O)(=O)c1ccc(Cl)cc1` the “hERG current change (%, negative = inhibition) at 1uM” value was 6.72%.
`CCCS(=O)(=O)N1CCN(C(=O)COc2ccc(OC)cc2)CC1.O=C(O)C(=O)O` was tested, and the “hERG current change (%, negative = inhibition) at 1uM” value was 11.7%.
In the case of `COc1ccc2oc(=N)c(C(=O)NCc3ccccc3)cc2c1`, the “hERG current change (%, negative = inhibition) at 1uM” value was 9.73%.
In the case of `CC(=O)Nc1ccc(NC(=O)CSc2ccc3nnc(CCNS(=O)(=O)c4ccc(C)cc4)n3n2)cc1`, the “hERG current change (%, negative = inhibition) at 1uM” value was 7.69%.
`Cc1cc(C)c(OCCCNC2CCCC2)c(Br)c1.O=C(O)C(=O)O` was tested, and the “hERG current change (%, negative = inhibition) at 1uM” value was 8.9%.
In the case of `Cc1cc(-c2ccc(C)c(S(=O)(=O)NCCN3CCC(C)CC3)c2)on1`, the “hERG current change (%, negative = inhibition) at 1uM” value was 5.76%.
For `COc1ccc(C=O)cc1O`, the “hERG current change (%, negative = inhibition) at 1uM” value was 5.93%.
For `NC(=S)N=Nc1c(O)[nH]c2ccc(F)cc12`, the “hERG current change (%, negative = inhibition) at 1uM” value was 11.4%.
`O=C(NNC(=O)c1oc2ccccc2c1-n1cccc1)c1ccco1` was tested, and the “hERG current change (%, negative = inhibition) at 1uM” value was 10.3%.
With `COc1ccccc1NC(=S)NCc1cccs1` the “hERG current change (%, negative = inhibition) at 1uM” value was 11%.
For `CCN(CC)CCSc1nnc(Nc2ccccc2)n1-c1ccccc1`, the “hERG current change (%, negative = inhibition) at 1uM” value was -43.4%.
With `COc1cccc(C(=O)/C=C/Nc2ccc(S(=O)(=O)Nc3nc(C)cc(C)n3)cc2)c1` the “hERG current change (%, negative = inhibition) at 1uM” value was 5.42%.
`S=C1SCN(CCN2CCOCC2)CN1Cc1ccccc1` was tested, and the “hERG current change (%, negative = inhibition) at 1uM” value was 12.5%.
`CCCc1nc(N2CCN(S(=O)(=O)c3ccc(Cl)cc3)CC2)c2c(C)c(C)sc2n1` was tested, and the “hERG current change (%, negative = inhibition) at 1uM” value was 9.56%.
